{
  "source": "PubChem BioAssay AID488969",
  "about": "(Vanderbilt High Throughput Screening Facility, 2010)",
  "note": "Over roughly 110,000 compounds, “z-score” has its median near -0.1; the highest 2% begin near 2. The list shows a part of the results. Calls of active or inactive are those of the source.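 Rule for the calls: active = z-score in the third read window above 3 or below -3; inactive = the rest.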",
  "data": [
    {"target": "Metabotropic glutamate receptor 8 (Rattus norvegicus) (UniProt P70579)", "sequence (P70579 whole entry, looked up)": "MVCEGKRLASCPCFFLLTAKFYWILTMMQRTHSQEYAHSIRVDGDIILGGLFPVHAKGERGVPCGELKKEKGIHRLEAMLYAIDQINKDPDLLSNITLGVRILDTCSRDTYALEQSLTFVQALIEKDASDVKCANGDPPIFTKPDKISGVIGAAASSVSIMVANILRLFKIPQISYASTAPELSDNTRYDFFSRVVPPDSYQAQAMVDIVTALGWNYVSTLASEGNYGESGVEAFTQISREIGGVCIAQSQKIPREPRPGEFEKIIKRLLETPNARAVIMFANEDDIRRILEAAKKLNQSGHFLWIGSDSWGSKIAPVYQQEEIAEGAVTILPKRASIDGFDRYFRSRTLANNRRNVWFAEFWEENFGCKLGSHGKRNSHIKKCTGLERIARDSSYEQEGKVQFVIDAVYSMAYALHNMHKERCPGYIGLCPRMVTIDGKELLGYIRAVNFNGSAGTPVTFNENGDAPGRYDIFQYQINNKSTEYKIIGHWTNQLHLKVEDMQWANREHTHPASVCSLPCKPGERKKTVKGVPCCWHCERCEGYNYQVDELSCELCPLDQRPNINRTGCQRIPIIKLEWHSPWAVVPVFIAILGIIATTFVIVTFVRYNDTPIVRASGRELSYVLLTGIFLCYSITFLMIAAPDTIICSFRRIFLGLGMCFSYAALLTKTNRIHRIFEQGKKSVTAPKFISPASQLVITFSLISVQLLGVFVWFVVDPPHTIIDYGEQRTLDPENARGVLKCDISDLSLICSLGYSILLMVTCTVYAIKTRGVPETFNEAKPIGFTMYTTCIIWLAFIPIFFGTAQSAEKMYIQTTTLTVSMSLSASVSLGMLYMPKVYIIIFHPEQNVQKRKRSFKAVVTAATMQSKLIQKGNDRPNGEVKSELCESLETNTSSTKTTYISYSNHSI", "assay": "mGluR8 Gi/Go-coupled signaling modulation – cell-based, rat, thallium flux, HTS, primary screen (AID 488969)", "settings": "HEK293 rat mGluR8, GIRK (G protein-gated inwardly rectifying potassium channel) thallium flux, FluoZin2; at 10 µM; stronger effect = higher value; submaximal glutamate (EC20) added with thallium", "values": [
      {"smiles": "C=CCN(C(=O)CCC(=O)O)C1CC(=O)N(c2ccc(OC)cc2)C1=O", "note": "(configuration not stated)", "z-score": 0.193},
      {"smiles": "Cc1cccc(OCC(=O)NC(=S)N2CCCc3ccccc32)c1", "z-score": "active: 7.99"},
      {"smiles": "CC(c1nnc(SCC(=O)N2CCc3ccccc32)n1-c1ccc(Cl)cc1)N(C)C", "note": "(configuration not stated)", "z-score": -0.315},
      {"smiles": "CCOC(=O)c1sc(NC(=O)CSc2nnc(-c3ccco3)n2CC)c(C(=O)OCC)c1C", "z-score": -0.967},
      {"smiles": "CN(C)c1nc(SCc2ccc(Cl)cc2)nc2c1CCCC2", "z-score": -0.153},
      {"smiles": "Cc1ccccc1-c1nc2sc(-c3ccccc3)cc2c(=O)o1", "z-score": 0.00593},
      {"smiles": "CCC(=O)Nc1ccc(C(=O)OCc2ccccc2Cl)cc1", "z-score": 0.488},
      {"smiles": "CC(=O)N(Cc1ccco1)C1(C(=O)NC2CCCC2)CCCCC1", "z-score": -1.43},
      {"smiles": "CC(=O)C1=C(NC(=O)c2ccccc2F)C[C@@H]2[C@H]1C2(C)C", "z-score": 0.568},
      {"smiles": "CCN1C(=O)/C(=C\\N2CCCCCC2)SC1=S", "z-score": -0.306},
      {"smiles": "O=C(CCSc1ccccc1)Nc1nc2c(s1)COc1ccccc1-2", "z-score": -0.419},
      {"smiles": "Cc1nc(CCNC(=O)Cc2ccc(F)cc2)cs1", "z-score": 0.29},
      {"smiles": "COCCn1c(SCc2cccnc2)nnc1-c1c[nH]c2ccccc12", "z-score": -0.163},
      {"smiles": "CCCCNS(=O)(=O)c1ccc(OC)c(Cl)c1Cl", "z-score": -0.317},
      {"smiles": "Cn1c(SCc2ccc(Cl)cc2Cl)nc(C(F)(F)F)cc1=O", "z-score": -0.551},
      {"smiles": "CCOC(=O)C1=C(C)NC(C)=C(C(=O)OCC)C1c1nc2ccccc2[nH]1", "z-score": 0.241},
      {"smiles": "CC12CC(c3ccccc3O1)C(C(=O)N1CCOCC1)C(=O)N2", "note": "(configuration not stated)", "z-score": -0.461},
      {"smiles": "O=C(CSc1nc2ccccc2s1)Nc1cc(S(=O)(=O)N2CCOCC2)ccc1O", "z-score": -0.511},
      {"smiles": "CC(NC(=O)Nc1ccc2c(c1)OCO2)C1CCCO1", "note": "(configuration not stated)", "z-score": 0.267},
      {"smiles": "OC(COc1ccccc1)CSc1ncn[nH]1", "note": "(configuration not stated)", "z-score": 0.139},
      {"smiles": "COC(=O)COc1ccsc1C(=O)OC", "z-score": 1.11},
      {"smiles": "O=C(Nc1nnc(SCc2ccccc2)s1)c1ccco1", "z-score": -0.221},
      {"smiles": "CSc1nnc(CSc2cc(C)nc(N(C)C)n2)o1", "z-score": -0.325},
      {"smiles": "Cc1cc(C)c(S(=O)(=O)N(CC(=O)N2CCOCC2)C2CCCCC2)c(C)c1", "z-score": -0.653},
      {"smiles": "COc1cc(C(=O)OCn2nnc3ccccc3c2=O)cc(OC)c1OC", "z-score": -0.433},
      {"smiles": "COc1ccccc1C(=O)NC(=S)NNC(=O)c1sc2ccccc2c1Cl", "z-score": "active: 3.35"},
      {"smiles": "CCC(Sc1nnc2c3ccccc3n(CC)c2n1)C(=O)Nc1sc2c(c1C#N)CCCC2", "note": "(configuration not stated)", "z-score": 0.544},
      {"smiles": "Cc1oc2ccc(NS(=O)(=O)c3ccccc3)cc2c1C(=O)Nc1ccccc1", "z-score": -0.597},
      {"smiles": "CC(C(=O)NCC1(c2ccccc2)CCCC1)N1CCOCC1", "note": "(configuration not stated)", "z-score": -0.000325},
      {"smiles": "Cc1ccc(NC(=O)C2CCN(S(=O)(=O)c3cccc4nonc34)CC2)nc1", "z-score": -0.164},
      {"smiles": "CN1CCN(NC(=O)C23CC4CC(CC(C4)C2)C3)CC1", "z-score": -0.194},
      {"smiles": "CC(C)(C)NC(=O)CSC(=Nc1ccccc1F)NC#N", "z-score": -0.194}
    ]}
  ]
}
